Over roughly 18,000 sequences, “TetR repression strength (sort-seq, GFP reporter)” has its median near 0.23; the highest 2% begin near 0.68. This is one part of the list.

The experiment addresses TetR (class B, Tn10) (UniProt P04483). Put plainly: TetR repression strength (sort-seq, GFP reporter) (relative to tetO2 = 1); higher = stronger repression. Conditions: E. coli. In short, it runs like this: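 Three independent transformations of E. coli SIG10-MAX were made with a low-copy plasmid library randomizing eight operator positions between a constitutive promoter and sfGFP, with constitutive TetR. Following 5 h at 37 °C in LB plus 50 µg/mL chloramphenicol, 10^6 cells went through FACS into 13 fluorescence bins, and each bin was sequenced by Illumina. Repression strength was defined as the top bin index plus one minus the read-weighted mean bin, divided by the unaltered operator's value. Averages included only members reaching ≥30 reads in all replicates with a CV ≤0.5.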
Sequence of UniProt P04483 (P04483 whole entry): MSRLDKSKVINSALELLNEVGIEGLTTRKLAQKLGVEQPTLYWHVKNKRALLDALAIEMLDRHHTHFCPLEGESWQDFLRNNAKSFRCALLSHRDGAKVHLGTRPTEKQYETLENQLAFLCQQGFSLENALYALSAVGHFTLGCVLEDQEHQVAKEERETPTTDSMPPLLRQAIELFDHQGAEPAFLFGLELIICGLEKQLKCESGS
The sequence TCCCGTCCAGTTCTGGAGA returned a TetR repression strength of 0.281.

Consider TCCCGTGCAGTAGAAGAGA, for which the TetR repression strength amounted to 0.254.

In turn, TCCCCAGGAGTTTGTGAGA displayed a TetR repression strength of 0.418.

For the sequence TCCCAAGAAGTGAAAGAGA, the TetR repression strength came to 0.2.

For TCCCGCGAAGTAGGCGAGA, the TetR repression strength is 0.224.

As to TCCCAGTTAGTACCGGAGA, the TetR repression strength is 0.161.

Regarding TCCCATACAGTTTATGAGA, the TetR repression strength is 0.215.

Turning to TCCCATCAAGTTGTTGAGA, the TetR repression strength worked out at 0.237.

Turning to TCCCGGCTAGTGCCGGAGA, the TetR repression strength stood at 0.233.

The sequence TCCCGTCAAGTCCGGGAGA gave a TetR repression strength of 0.207.

TCCCGGGAAGTAGCTGAGA showed a TetR repression strength of 0.647.

Take TCCCTCGTAGTGGTAGAGA: the TetR repression strength is 0.311.

TCCCGGTAAGTCGGAGAGA gave a TetR repression strength of 0.187.

In turn, TCCCAGCCAGTTGGTGAGA showed a TetR repression strength of 0.192.

For the sequence TCCCGGACAGTACAAGAGA, the TetR repression strength stood at 0.104.

In turn, TCCCGCTAAGTGGCCGAGA yielded a TetR repression strength of 0.191.

As for TCCCGCGTAGTGCGCGAGA, the TetR repression strength was 0.23.

TCCCGGGAAGTACATGAGA returned a TetR repression strength of 0.593.

Sequence TCCCGCAGAGTTGGTGAGA came in with a TetR repression strength of 0.212.

As for TCCCCTGAAGTCAGGGAGA, the TetR repression strength was determined as 0.284.

TCCCCTGAAGTAGAGGAGA had a TetR repression strength of 0.591.

TCCCATCCAGTGGCTGAGA showed a TetR repression strength of 0.338.

For TCCCGAGCAGTGTAGGAGA, the TetR repression strength was determined as 0.0474.

In turn, TCCCCGGTAGTAATTGAGA gave a TetR repression strength of 0.0259.

For TCCCCGAGAGTAGAAGAGA, the TetR repression strength was determined as 0.461.

In turn, TCCCGCGGAGTCAGCGAGA displayed a TetR repression strength of 0.0334.

TCCCGTCTAGTTAACGAGA registered a TetR repression strength of 0.368.

Consider TCCCGCGCAGTGTTGGAGA, for which the TetR repression strength came out at 0.194.

TCCCGGAAAGTTCCAGAGA showed a TetR repression strength of 0.201.

For TCCCGCCCAGTTTGTGAGA, the TetR repression strength was 0.19.

TCCCGGAAAGTATTGGAGA showed a TetR repression strength of 0.352.

The sequence TCCCTGTGAGTTACAGAGA came in with a TetR repression strength of 0.348.

TCCCGAATAGTCGTAGAGA: the TetR repression strength came to 0.207.

In turn, TCCCACATAGTGCACGAGA came in with a TetR repression strength of 0.194.

As to TCCCCTGGAGTGGAGGAGA, the TetR repression strength came to 0.258.

Take TCCCTGAGAGTGTAGGAGA: the TetR repression strength was 0.107.

The sequence TCCCGAAGAGTACCGGAGA gave a TetR repression strength of 0.00527.

TCCCGCGTAGTGTGCGAGA: the TetR repression strength stood at 0.487.

In turn, TCCCGATCAGTGTTCGAGA came in with a TetR repression strength of 0.548.

TCCCGTTGAGTCATGGAGA displayed a TetR repression strength of 0.178.

On to TCCCGAAAAGTGTTCGAGA, for which the TetR repression strength is 0.247.

TCCCTCATAGTAATGGAGA yielded a TetR repression strength of 0.248.

For the sequence TCCCATTCAGTACGTGAGA, the TetR repression strength is 0.246.

As to TCCCTTTTAGTCGAGGAGA, the TetR repression strength is 0.346.

The sequence TCCCGAGGAGTCTGCGAGA showed a TetR repression strength of 0.12.

TCCCAACCAGTAGATGAGA displayed a TetR repression strength of 0.014.

For the sequence TCCCTCGCAGTAGGAGAGA, the TetR repression strength was determined as 0.288.

TCCCTCCAAGTAACTGAGA had a TetR repression strength of 0.39.

In the case of TCCCTCAAAGTTGTCGAGA, the TetR repression strength was 0.26.

The sequence TCCCCTCAAGTCCCTGAGA came in with a TetR repression strength of 0.227.

TCCCGGCTAGTCGGAGAGA displayed a TetR repression strength of 0.196.

On to TCCCGATGAGTGTGCGAGA, for which the TetR repression strength is 0.143.

In turn, TCCCACGAAGTGAAGGAGA displayed a TetR repression strength of 0.0957.

Consider TCCCAGGTAGTTGATGAGA, for which the TetR repression strength worked out at 0.177.

Take TCCCTCGAAGTCTCGGAGA: the TetR repression strength was determined as 0.228.

In the case of TCCCGAGGAGTTGCCGAGA, the TetR repression strength was 0.154.

TCCCATGCAGTTAGCGAGA returned a TetR repression strength of 0.104.

With TCCCAGGAAGTCACAGAGA, the TetR repression strength was 0.187.

For TCCCTTAAAGTAGGCGAGA, the TetR repression strength was 0.0673.

TCCCGATTAGTGCATGAGA displayed a TetR repression strength of 0.178.

For the sequence TCCCCTATAGTGTGGGAGA, the TetR repression strength came to 0.144.

For TCCCGATTAGTGAGGGAGA, the TetR repression strength worked out at 0.309.

Take TCCCTTCTAGTATCGGAGA: the TetR repression strength was 0.317.

As for TCCCCTTGAGTGGTTGAGA, the TetR repression strength came out at 0.286.

TCCCTATCAGTTCGTGAGA registered a TetR repression strength of 0.423.

On to TCCCCACAAGTACAGGAGA, for which the TetR repression strength amounted to 0.0968.

The sequence TCCCAGCCAGTGCCTGAGA gave a TetR repression strength of 0.328.

TCCCCGGAAGTGAAGGAGA: the TetR repression strength was found to be 0.296.

TCCCTAGCAGTTGGTGAGA: the TetR repression strength was 0.408.

For the sequence TCCCCTGGAGTCCTGGAGA, the TetR repression strength was found to be 0.439.

TCCCTGGGAGTGCGCGAGA yielded a TetR repression strength of 0.124.

The sequence TCCCTGCGAGTACAAGAGA yielded a TetR repression strength of 0.325.

Sequence TCCCGGTAAGTTAGGGAGA registered a TetR repression strength of 0.14.

Consider TCCCGATGAGTGTAGGAGA, for which the TetR repression strength is 0.224.

For TCCCGGACAGTGGAAGAGA, the TetR repression strength was determined as 0.0571.

The sequence TCCCAACAAGTTTGGGAGA had a TetR repression strength of 0.136.

Consider TCCCTCTGAGTTAGCGAGA, for which the TetR repression strength worked out at 0.372.

Consider TCCCGAGGAGTGGTCGAGA, for which the TetR repression strength worked out at 0.189.

Consider TCCCCAAGAGTGCGGGAGA, for which the TetR repression strength is 0.0296.

Turning to TCCCTTACAGTGTGCGAGA, the TetR repression strength is 0.251.

The sequence TCCCGTTTAGTGACGGAGA gave a TetR repression strength of 0.166.

On to TCCCTGGAAGTAGCAGAGA, for which the TetR repression strength stood at 0.0782.

With TCCCGTCAAGTCGCAGAGA, the TetR repression strength came to 0.244.

In the case of TCCCTATGAGTTTGAGAGA, the TetR repression strength was 0.33.

On to TCCCTGGAAGTGGACGAGA, for which the TetR repression strength worked out at 0.298.

TCCCGACAAGTGGTCGAGA gave a TetR repression strength of 0.162.

As for TCCCGTTTAGTAGTCGAGA, the TetR repression strength was 0.0473.

In turn, TCCCACGCAGTGCGCGAGA registered a TetR repression strength of 0.203.

In the case of TCCCCGCTAGTTCGCGAGA, the TetR repression strength was 0.476.

Consider TCCCGGGCAGTACCTGAGA, for which the TetR repression strength is 0.388.

TCCCATGCAGTGCCGGAGA displayed a TetR repression strength of 0.184.

The sequence TCCCAGGAAGTCGCTGAGA gave a TetR repression strength of 0.0904.

Turning to TCCCACCTAGTGACGGAGA, the TetR repression strength turned out to be 0.131.

As to TCCCTCTTAGTTTCAGAGA, the TetR repression strength came out at 0.485.

Sequence TCCCCCAGAGTAAGGGAGA showed a TetR repression strength of 0.178.

Take TCCCCTCGAGTTCAGGAGA: the TetR repression strength is 0.208.

Regarding TCCCCCGGAGTCGCAGAGA, the TetR repression strength came out at 0.224.

TCCCGTGGAGTGGTAGAGA registered a TetR repression strength of 0.203.

In turn, TCCCGTGAAGTCGGAGAGA yielded a TetR repression strength of 0.285.

Sequence TCCCTCCGAGTCCGCGAGA gave a TetR repression strength of 0.512.

In turn, TCCCCGTGAGTCCAAGAGA yielded a TetR repression strength of 0.401.

For TCCCGCACAGTGCGAGAGA, the TetR repression strength is 0.19.

The values above are taken from a collection of fitness landscapes (doi:10.1038/s41467-024-54723-y).
